# The other results are listed elsewhere or left out.
# Key:
# Test in all cases: glycan array binding signal (z-score within array); higher = stronger binding
# Settings in all cases: glycan notation: IUPAC condensed, linker removed
# Gal(a1-3)Gal = biological target: Gal(a1-3)Gal
# Summary of the method: (§1)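 From the Consortium for Functional Glycomics database, 3228 arrays were curated, keeping only those whose protein sequence was available. Binding is given as a within-array Z-score averaged across arrays sharing a protein sequence and across linkers. Negative Z-scores can be read as non-binding.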
# Gal(a1-3)Gal(b1-3)GlcNAc = biological target: Gal(a1-3)Gal(b1-3)GlcNAc
# Summary of the method: as §1
# [1] = biological target: Gal(a1-3)Gal(b1-3)GlcNAc(b1-2)Man
# Summary of the method: as §1
# [2] = biological target: Gal(a1-3)Gal(b1-3)GlcNAc(b1-2)Man(a1-3)[Gal(a1-3)Gal(b1-3)GlcNAc(b1-2)Man(a1-6)]Man(b1-4)GlcNAc(b1-4)GlcNAc
# Summary of the method: as §1
# [3] = biological target: Gal(a1-3)Gal(b1-3)GlcNAc(b1-3)GalNAc
# Summary of the method: as §1
# [4] = biological target: Gal(a1-3)Gal(b1-3)GlcNAc(b1-6)GalNAc
# Summary of the method: as §1
# [5] = biological target: Gal(a1-3)Gal(b1-3)[Fuc(a1-4)]GlcNAc(b1-2)Man(a1-3)[Gal(a1-3)Gal(b1-3)[Fuc(a1-4)]GlcNAc(b1-2)Man(a1-6)]Man(b1-4)GlcNAc(b1-4)GlcNAc
# Summary of the method: as §1
# Gal(a1-3)Gal(b1-4)Glc = biological target: Gal(a1-3)Gal(b1-4)Glc
# Summary of the method: as §1
# Gal(a1-3)Gal(b1-4)GlcNAc = biological target: Gal(a1-3)Gal(b1-4)GlcNAc
# Summary of the method: as §1
# [6] = biological target: Gal(a1-3)Gal(b1-4)GlcNAc(b1-2)Man
# Summary of the method: as §1
# [7] = biological target: Gal(a1-3)Gal(b1-4)GlcNAc(b1-2)Man(a1-3)[Gal(a1-3)Gal(b1-4)GlcNAc(b1-2)Man(a1-6)]Man(b1-4)GlcNAc(b1-4)GlcNAc
# Summary of the method: as §1
# [8] = biological target: Gal(a1-3)Gal(b1-4)GlcNAc(b1-3)GalNAc
# Summary of the method: as §1
# [9] = biological target: Gal(a1-3)Gal(b1-4)GlcNAc(b1-6)GalNAc
# Summary of the method: as §1
# [10] = biological target: Gal(a1-3)Gal(b1-4)[Fuc(a1-3)]GlcNAc
# Summary of the method: as §1
# [11] = biological target: Gal(a1-3)Gal(b1-4)[Fuc(a1-3)]GlcNAc(b1-2)Man(a1-3)[Gal(a1-3)Gal(b1-4)[Fuc(a1-3)]GlcNAc(b1-2)Man(a1-6)]Man(b1-4)GlcNAc(b1-4)GlcNAc
# Summary of the method: as §1
# Gal(a1-3)GalNAc = biological target: Gal(a1-3)GalNAc
# Summary of the method: as §1
# [12] = biological target: Gal(a1-3)[Gal(a1-4)]Gal(b1-4)GlcNAc
# Summary of the method: as §1
# [13] = biological target: Gal(a1-4)Gal(b1-3)GlcNAc(b1-2)Man(a1-3)[Gal(a1-4)Gal(b1-3)GlcNAc(b1-2)Man(a1-6)]Man(b1-4)GlcNAc(b1-4)GlcNAc
# Summary of the method: as §1
# Gal(a1-4)Gal(b1-4)Glc = biological target: Gal(a1-4)Gal(b1-4)Glc
# Summary of the method: as §1
# Gal(a1-4)Gal(b1-4)GlcNAc = biological target: Gal(a1-4)Gal(b1-4)GlcNAc
# Summary of the method: as §1
# [14] = biological target: Gal(a1-4)Gal(b1-4)GlcNAc(b1-2)Man(a1-3)[Gal(a1-4)Gal(b1-4)GlcNAc(b1-2)Man(a1-6)]Man(b1-4)GlcNAc(b1-4)GlcNAc
# Summary of the method: as §1
# [15] = biological target: Gal(a1-4)Gal(b1-4)GlcNAc(b1-3)Gal(b1-4)Glc
# Summary of the method: as §1
# Gal(a1-4)GlcNAc = biological target: Gal(a1-4)GlcNAc
# Summary of the method: as §1
# Gal(a1-6)Glc = biological target: Gal(a1-6)Glc
# Summary of the method: as §1
# Gal(b1-2)Gal = biological target: Gal(b1-2)Gal
# Summary of the method: as §1
# Gal(b1-3)Gal = biological target: Gal(b1-3)Gal
# Summary of the method: as §1
# Gal(b1-3)Gal(b1-4)GlcNAc = biological target: Gal(b1-3)Gal(b1-4)GlcNAc
# Summary of the method: as §1
# Gal(b1-3)GalNAc = biological target: Gal(b1-3)GalNAc
# Summary of the method: as §1
# [16] = biological target: Gal(b1-3)GalNAc(a1-3)[Fuc(a1-2)]Gal(b1-4)Glc
# Summary of the method: as §1
# [17] = biological target: Gal(b1-3)GalNAc(a1-3)[Fuc(a1-2)]Gal(b1-4)GlcNAc
# Summary of the method: as §1
# Gal(b1-3)GalNAc(b1-3)Gal = biological target: Gal(b1-3)GalNAc(b1-3)Gal
# Summary of the method: as §1
# [18] = biological target: Gal(b1-3)GalNAc(b1-3)Gal(a1-4)Gal(b1-4)Glc
# Summary of the method: as §1
# [19] = biological target: Gal(b1-3)GalNAc(b1-4)Gal(b1-4)Glc
# Summary of the method: as §1
# [20] = biological target: Gal(b1-3)GalNAc(b1-4)[Neu5Ac(a2-3)]Gal(b1-4)Glc
# Summary of the method: as §1
# Gal(b1-3)GlcNAc = biological target: Gal(b1-3)GlcNAc
# Summary of the method: as §1
# [21] = biological target: Gal(b1-3)GlcNAc(a1-3)Gal(b1-4)GlcNAc
# Summary of the method: as §1
# [22] = biological target: Gal(b1-3)GlcNAc(a1-6)Gal(b1-4)GlcNAc
# Summary of the method: as §1
# Gal(b1-3)GlcNAc(b1-2)Man = biological target: Gal(b1-3)GlcNAc(b1-2)Man
# Summary of the method: as §1
binder,measurement,setting,value
"SSP1 (Sclerotinia sclerotiorum), XP_001584968 (protein) MGSSHHHHHHSSGLVPRGSHMSLLTTELACTSAPDQVLHLFFQDGQNILEARSPDGGNVWTTQDTIIAKDGDYNGSSMTCYYVDKDANFDNQPSIHLLYMNKDKQLTEKVKRMKGDNPIWEDAKVPDEVRKGPEQYSKLTSGSFNQGTGWNPNGSQWAYFSASKDGKMGIVEIRRTPKDPWHTETILEEKWGDELPGTALACVIGNGKIRVFLQHHDYSIILYENQNNTWHDRGTFIPKDKVQATTPLACTMTKDGSVHLFYVSKSNKIIHCTDGKKEEELINFFPGSKLGATSVENKITLFFRNLNPVNEVGTLENENGSWKHGTTVIPA",glycan array binding signal (z-score),Gal(a1-3)Gal,-0.476
same,glycan array binding signal (z-score),Gal(a1-3)Gal(b1-3)GlcNAc,2.88
same,glycan array binding signal (z-score),[1],-0.606
same,glycan array binding signal (z-score),[2],0.327
same,glycan array binding signal (z-score),[3],-0.016
same,glycan array binding signal (z-score),[4],0.819
same,glycan array binding signal (z-score),[5],0.141
same,glycan array binding signal (z-score),Gal(a1-3)Gal(b1-4)Glc,-0.346
same,glycan array binding signal (z-score),Gal(a1-3)Gal(b1-4)GlcNAc,-0.316
same,glycan array binding signal (z-score),[6],-0.137
same,glycan array binding signal (z-score),[7],-0.097
same,glycan array binding signal (z-score),[8],-0.142
same,glycan array binding signal (z-score),[9],-0.258
same,glycan array binding signal (z-score),[10],-0.053
same,glycan array binding signal (z-score),[11],-0.315
same,glycan array binding signal (z-score),Gal(a1-3)GalNAc,0.281
same,glycan array binding signal (z-score),[12],2.85
same,glycan array binding signal (z-score),[13],0.003
same,glycan array binding signal (z-score),Gal(a1-4)Gal(b1-4)Glc,0.063
same,glycan array binding signal (z-score),Gal(a1-4)Gal(b1-4)GlcNAc,-0.009
same,glycan array binding signal (z-score),[14],0.593
same,glycan array binding signal (z-score),[15],-0.235
same,glycan array binding signal (z-score),Gal(a1-4)GlcNAc,-0.456
same,glycan array binding signal (z-score),Gal(a1-6)Glc,-0.393
same,glycan array binding signal (z-score),Gal(b1-2)Gal,0.5
same,glycan array binding signal (z-score),Gal(b1-3)Gal,0.017
same,glycan array binding signal (z-score),Gal(b1-3)Gal(b1-4)GlcNAc,-0.589
same,glycan array binding signal (z-score),Gal(b1-3)GalNAc,-0.111
same,glycan array binding signal (z-score),[16],-0.29
same,glycan array binding signal (z-score),[17],3.1
same,glycan array binding signal (z-score),Gal(b1-3)GalNAc(b1-3)Gal,-0.512
same,glycan array binding signal (z-score),[18],-0.113
same,glycan array binding signal (z-score),[19],-0.197
same,glycan array binding signal (z-score),[20],-0.812
same,glycan array binding signal (z-score),Gal(b1-3)GlcNAc,0.089
same,glycan array binding signal (z-score),[21],-0.511
same,glycan array binding signal (z-score),[22],-0.495
same,glycan array binding signal (z-score),Gal(b1-3)GlcNAc(b1-2)Man,-0.198

# — the supplement of paper PMC8728848
